Test results from PubChem BioAssay AID493208 (National Center for Advancing Translational Sciences (NCATS), 2011).
In all, about 44,000 compounds went through this assay and about 340 (0.77%) were called active. Not shown: some 5% with an inconclusive outcome. The call rests on the fitted dose curve; in most records, active means well fitted inhibition curve with a large enough effect; inconclusive means small, poorly fitted or top-dose-only effect; inactive means flat fitted curve, though single readings scatter. This is one part of the list.

Assay: Acumen qHTS Assay for Inhibitors of the mTORC1 Signaling Pathway in MEF (Tsc2-/-, p53-/-) Cells: Sytravon;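 further: plate controls were DMSO for no effect and rapamycin for full effect; nearly all actives have a fitted effect of over 50% in size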
Settings: phospho-rpS6 immunofluorescence/PI, 24 h; series mostly up to 38.3 µM; activity change, negative = inhibition: at the top concentration
Outline: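 Readout is phospho-S6 Alexa 488 signal normalized to PI per well, reported as % active cells with thresholds set from rapamycin (7.5 nM) and DMSO controls. Cells: Tsc2-/-, p53-/- MEFs, 24 hrs compound at 37 C; PI cell number serves as viability.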

Structure (SMILES)	activity change, negative = inhibition
CC(C)CCNC(=O)CCCN1C(=O)c2ccccc2Sc2ncccc21	inactive: -1.49%
COc1cc(-c2noc(CN3CCN(c4ccccc4)CC3)n2)cc(OC)c1OC	inactive: -10.1%
Cc1cccc(NC(=O)C(=O)NCC(c2ccc3c(c2)OCO3)N2CCOCC2)c1C (centres undefined)	inactive: -7.17%
CCOC(=O)c1ccccc1NC(=O)N1CCc2c(sc(C)c2CC)C1c1ccccc1 (centres undefined)	inactive: 22.4%
COc1ccccc1-c1nc2c(c(SCc3cccc(Cl)c3)n1)Cc1c(CO)cnc(C)c1O2	inactive: 0.236%
COc1cc(OC)cc(C(=O)Oc2c(Sc3ccccc3)c(C)nn2C(C)(C)C)c1	inactive: 1.47%
Cc1cn2c(=O)cc(COC(=O)c3cccc(NC(=O)COc4ccccc4Cl)c3)nc2s1	inactive: 3.6%
CCc1ccc(C2c3c(-c4ccccc4O)n[nH]c3C(=O)N2Cc2ccncc2)cc1 (centres undefined)	inactive: -27.3%
CCOc1ccc(-n2c(Cc3ccccc3)nnc2SCc2nc(-c3ccccc3OC)no2)cc1	inactive: -4.26%
CN1CCN(C(CNC(=O)c2cccc(F)c2)c2ccc3c(c2)OCO3)CC1 (centres undefined)	inactive: 0.315%
Cc1cc(C)c(NC(=O)C2CCN(c3nc4ccccc4[nH]3)CC2)c(C)c1	inactive: 4.46%
O=C(Nc1ccc2oc(-c3ccccc3F)nc2c1)c1ccccc1Cl	inactive: -5.64%
Cc1cccc(CSc2ncc(CO)n2Cc2ccc(F)cc2)c1	inactive: -27.4%
Cc1ccc2c(c1)-c1nc(-c3ccc(Cl)cc3)cc(-c3coc4ccccc4c3=O)c1CO2	inactive: -8.55%
COc1ccc(NC(=O)CSc2ncc3c(n2)-c2cc(Cl)ccc2N(Cc2ccccc2F)S3(=O)=O)cc1	inactive: -16%
CCCSc1ncc(Cl)c(C(=O)Nc2ccc(S(=O)(=O)Nc3ncccn3)cc2)n1	inactive: 2.94%
Cc1cc(C)c2c(=O)cc(C(=O)Nc3sc4c(c3C(=O)NCc3ccccc3)CCCC4)oc2c1	inactive: -2.78%
Fc1ccc(-n2ncc3c(NCCCN4CCOCC4)ncnc32)cc1	inactive: 11.1%
COc1cc(-c2nnc(SCCOc3ccc(Cl)cc3C)o2)cc(OC)c1OC	inactive: 2.32%
CCOC(=O)c1c(NC(=O)CSc2cn(CCNC(=O)c3ccccc3F)c3ccccc23)sc2c1CCC2	inactive: -11.3%
COC(=O)c1cc(S(=O)(=O)NCC2CCN(Cc3ccc(F)cc3)CC2)cn1C	inactive: -1.79%
O=C(Nc1ccc2nc(SCC(=O)N3CCCc4ccccc43)sc2c1)c1cccc(F)c1	inactive: -5.29%
COc1cccc(CNC(=O)c2ccc(CSc3nc4ccncc4n3Cc3cccc(C)c3)cc2)c1	inactive: 4.12%
Cc1ccc2c(c1)N(CCC(=O)NCc1ccc(F)cc1)C(=O)CO2	inactive: -3.51%

Structure (SMILES)	activity change, negative = inhibition
CCOCCc1nn2c(=O)cc(COC(=O)CNC(=O)c3ccc(C(C)(C)C)cc3)nc2s1	inactive: 0.435%
Cc1ccc(Cl)cc1N1CCN(S(=O)(=O)c2ccc3[nH]c4c(c3c2)CCCCC4)CC1	inactive: 2.81%
COc1cc(NC(=O)CCc2c(C)nn(-c3ccc4nncn4n3)c2C)cc(OC)c1OC	inactive: -2.28%
Cc1c(CC(=O)NCCc2ccccc2F)c(=O)oc2c(C)c3occ(C(C)(C)C)c3cc12	inactive: -2.43%
COc1ccc(NC(=O)CSc2cn(CC(=O)N3CCOCC3)c3ccccc23)cc1OC	inactive: -12.8%
COc1cccc(N2CCN(C(=O)c3ccc4c(=O)n(CCc5ccccc5)c(=O)[nH]c4c3)CC2)c1	inactive: -17.3%
CC(C)COC(=O)/C(C#N)=C\c1ccc(-c2ccccc2Cl)o1	inactive: -1.12%
CCc1ccc(S(=O)(=O)c2nnn3c2nc(N2CCC(C)CC2)c2cc(Cl)ccc23)cc1	inactive: -0.0055%
COc1ccc(-c2cc(C(=O)NCc3cc(OC)c(OC)c(OC)c3)[nH]n2)cc1	inactive: -4.52%
Cc1ccc(Cl)c2c1N[C@@H](c1ccc(C(=O)O)cc1)[C@H]1CC=C[C@@H]21	inactive: 12.9%
Cc1ccc(C)c(NC(=O)CCN2C(=O)c3ccccc3Sc3ncccc32)c1	inactive: -0.914%
O=C(Nc1ccccc1)C(Cc1ccccc1)N1Cc2ccccc2C1=O (centres undefined)	inactive: -3.11%
CCOc1ccc(-c2nc(CSCC(=O)N3CCN(c4cccc(C(F)(F)F)c4)CC3)c(C)o2)cc1	inactive: -2.73%
COc1ccc(C2=NS(=O)(=O)N(C)C(C(=O)Nc3cc(C)ccc3O)=C2)cc1OC	inactive: -0.628%
Cc1nc(N2C(=O)c3oc4ccccc4c(=O)c3C2c2ccccc2F)sc1C (centres undefined)	inactive: 6.42%
COc1cccc(N2CCN(S(=O)(=O)c3cc(Br)cc4c3N(C(=O)C3CC3)CC4)CC2)c1	inactive: 2.32%
Cc1cccc(N2C(=O)CSC23C(=O)N(Cc2cccc(F)c2)c2ccccc23)c1 (centres undefined)	inactive: -12.8%
CN1CCN(C(CNC(=O)C(=O)Nc2ccccc2)c2ccc3c(c2)OCO3)CC1 (centres undefined)	inactive: -0.143%
Cc1ccc(C)c(CSc2nc3ncccc3[nH]2)c1	inactive: -1.32%
Cc1cccc(-c2noc(CN(C(=O)COc3ccc(C(C)C)cc3)C(C)C)n2)c1	inactive: -17.8%
CCOC(=O)c1c(C)n(-c2ccccc2)c2ccc(OC(=O)c3ccccc3)cc12	inactive: -11.4%
COc1cccc(CNC(=O)CSc2nc(=O)[nH]c3c2CCCC3)c1	inactive: -5.03%
CCc1ccc(NC(=O)Cn2c(=O)c(-c3ccccc3NC(C)=O)nc3ccccc32)cc1	inactive: -11.9%
Oc1c(C(c2ccc(Cl)cc2Cl)N2CCOCC2)sc2nc(-c3ccco3)nn12 (centres undefined)	inactive: -6.8%

Structure (SMILES)	activity change, negative = inhibition
CCOc1ccc(S(=O)(=O)N(CC(=O)NCCSCc2ccc(C)cc2)c2ccccc2)cc1	inactive: -21.6%
CCn1ccc2cc(S(=O)(=O)N3CCCN(C(=O)Nc4ccccc4C(F)(F)F)CC3)ccc21	inactive: 2.87%
Cc1ccc2c(=O)cc(C(=O)Nc3nnc(CC(C)C)s3)oc2c1C	inactive: -4.44%
O=C(CC1N=C2c3ccccc3N=C(SCC(=O)Nc3cccc(Cl)c3)N2C1=O)NCc1cccs1 (centres undefined)	inactive: -1.75%
Cc1cccc(Cn2c(=O)n(CCC(=O)NCc3ccc4c(c3)OCO4)c(=O)c3sccc32)c1	inactive: -5.84%
CC1CCN(S(=O)(=O)c2ccc(N3CCCCS3(=O)=O)cc2)CC1	inactive: 2.09%
COc1ccc(CCNC(=O)Cn2cc(S(=O)(=O)Cc3ccccc3F)c3ccccc32)cc1OC	inactive: 0.536%
Cc1ccc(C)n1-c1nnc(N2CCC(C(=O)Nc3ccccc3Br)CC2)s1	inactive: -9.85%
COc1ccc2c(c1)Cc1sc(NC(=O)c3ccccc3Br)nc1-2	inactive: 2.62%
CCc1ccc(NC(=O)c2ccc3c(c2)N(Cc2ccc(C)cc2)CCS3)cc1	inactive: -5.16%
CCn1c(SCC(=O)Nc2ccc(C)cc2Br)nnc1-c1nonc1NC(C)=O	inactive: -0.942%
CCCN1CCc2nc(N3CCN(CC)CC3)ncc2C1	inactive: 4.17%
COc1ccccc1CNc1cc(-c2ccccc2)nc2nncn12	inactive: -5.29%
CCOc1cccc(C(=O)Nc2c(C(=O)c3ccc(OC)cc3)oc3ccccc23)c1	inactive: -7.05%
COc1ccc(N2Cc3cccc(C(=O)Nc4ccc(C(C)C)cc4)c3C2=O)cc1	inactive: 2.38%
CCCCOC(=O)c1ccc(NC(=O)c2cc(-c3ccccc3)on2)cc1	inactive: 1.38%
CS(=O)(=O)NCC(c1ccco1)N1CCN(c2ccccc2)CC1 (centres undefined)	inactive: -0.373%
O=C(CN(c1ccc(Cl)c(C(F)(F)F)c1)S(=O)(=O)c1ccccc1)N1CCc2ccccc2C1	inactive: 13.2%
Cc1ccc(NC(=O)c2sc(-n3nc(C)c(CCC(C)C)c3C)nc2C)cc1C	inactive: -9.51%
CC1=C(C(=O)Nc2cccnc2)C(c2ccc(F)cc2)n2nc(SCc3ccccc3F)nc2N1 (centres undefined)	inactive: -2.02%
CCN(C(=O)c1cc2c(Cl)nc3ccccc3c2s1)c1cccc(Cl)c1	inactive: -4.31%
CCOC(=O)c1cnc2c(C)c(Cl)ccc2c1Nc1ccc(C)cc1C	inactive: 17.4%
CN1c2cc(Cl)ccc2-c2nc(SCC(=O)Nc3ccc(F)cc3F)ncc2S1(=O)=O	inactive: -7.25%
COc1cc(NC(=O)CN(C)S(=O)(=O)c2ccc3[nH]c4c(c3c2)CCCC4)cc(OC)c1OC	inactive: -1.2%

Structure (SMILES)	activity change, negative = inhibition
CCOC(=O)N1CCc2c(sc(NCc3ccc(OCC)cc3)c2C(=O)Nc2ccc(OC)cc2OC)C1	inactive: -2.51%
O=C(NC1CCCC1)c1ccc(CSc2nc3ccncc3n2Cc2ccccc2F)cc1	inactive: 1.26%
COc1ccccc1C(=O)NCc1ccc2c(c1)CCN2C(=O)c1ccncc1	inactive: 4.84%
CCOC(=O)C1CCCN(C(=O)C2CCN(c3nnc(C)c4c(C)n(-c5ccccc5)nc34)CC2)C1 (centres undefined)	inactive: -0.133%
Cc1cc(NC(=O)CSc2nc3c([nH]c4ccccc43)c(=O)n2-c2cccc(Cl)c2)no1	inactive: -0.428%
Clc1ccc(-c2noc3ncnc(NCCCN4CCN(c5ccccc5)CC4)c23)cc1	inactive: -1.05%
CCOc1ccccc1NC(=O)C(Cc1ccccc1)NS(=O)(=O)c1ccc(Br)s1 (centres undefined)	inactive: -4.49%
Cc1ccc(C)c(N2CCN(C(=O)C3CCN(S(=O)(=O)c4cn(C)cn4)CC3)CC2)c1	inactive: 0%
CCc1ccc(CNC(=O)C(CC)n2ccc3cc(S(=O)(=O)N4CCCCC4)ccc32)cc1 (centres undefined)	inactive: -7.38%
COc1ccc(CNS(=O)(=O)c2cc(C(=O)Nc3cc(Cl)cc(Cl)c3)ccc2F)cc1	inactive: 5.62%
CCOC(=O)Cn1c(=O)oc2cc(S(=O)(=O)Nc3cc(OC)cc(OC)c3)ccc21	inactive: -1.32%
COc1ccccc1C(=O)NCc1ccc2c(c1)CCN2C(=O)c1cccc(C)c1	inactive: 1.45%
COc1ccc(N2CCN(C(=O)C3CCN(S(=O)(=O)c4cnc[nH]4)CC3)CC2)cc1	inactive: 0.208%
CCc1ccccc1Nc1nn2c(=O)c3ccc(C(=O)NCc4cccs4)cc3nc2s1	inactive: -5.97%
CCn1c(C)c(C)c2cc(C(=O)NCCc3cc(OC)c(OC)c(OC)c3)ccc21	inactive: -2.59%
CCc1ccc(S(=O)(=O)c2nnn3c2nc(NCc2cccs2)c2sccc23)cc1	inactive: -1.81%
CN1CCN(C(c2ccc(F)cc2)c2sc3nc(-c4ccco4)nn3c2O)CC1 (centres undefined)	inactive: 0.0155%
Cc1cccc(C(=O)Nc2cccc(C(=O)OCc3cc(=O)n4c5c(sc4n3)CCCC5)c2)c1	inactive: 0%
COc1ccc(-c2c3c(=O)n(C)c(=O)n(C)c3c3c(-c4ccccc4)nc4ccccc4n23)cc1	inactive: 0.798%
O=C(Nc1ccccc1F)C(Cc1ccccc1)n1cccc1 (centres undefined)	inactive: -2.08%
COc1ccc(Cn2c(C(=O)O)c(CNCc3cccs3)c3ccc(C)cc32)cc1	inactive: -9.41%
CNC(=O)c1cc2c(n(-c3ccc(C)cc3)c1=O)CC(C)(C)CC2=O	inactive: -4%
